The results in this text go back to ChEMBL document CHEMBL4888484, “Replenishing the malaria drug discovery pipeline: Screening and hit evaluation of the MMV Hit Generation Library 1 (HGL1) against asexual blood stage Plasmodium falciparum ,using a nano luciferase reporter read-out” (2022).

Hit rate of the full screen: of about 150,000 compounds, about 540 (0.36%) showed an effect of 50% or more. The list shows a part of the results.

In the test the test system is Plasmodium falciparum. As to the kind of experiment: Primary screen in NF54 nanoGlo assay, in single point, at 2uM, 72h; a lower Z score goes with more inhibition. The format is functional, Erythrocyte. To be noted: timepoint 72 hour.
As to `Cc1nc2ccc(-n3c(C)ccc3C)cc2s1`, the “% Inhibition” value is -14% and the Z score stood at 2.42.
In the case of `CCc1ccc(NC(=O)[C@H]2C[C@H]3CCCN3[C@@]23C(=O)N(C)c2ccccc23)cc1`, the “% Inhibition” value is given as -18% and the Z score stood at 1.78.
In the same order, the values of `CCCS(=O)(=O)Nc1ccc(S(=O)(=O)N(C)C(C)(C)C#N)cc1F` are -12% and 1.9.
On to `CC(C)(C)CN1CCC[C@@]2(CCN(Cc3ccc4c(c3)OCCO4)C2)C1`, for which the “% Inhibition” value is -11% and the Z score amounted to 1.66.
On to `COC1CC(OC(=O)c2csc(NC(C)=O)n2)C1` (configuration not stated), for which the “% Inhibition” value is -5% and the Z score is recorded as 0.95.
As for `CCn1nnc(C)c1CN[C@@H](C)COc1cccc(C)c1`, the “% Inhibition” value is on record as -6% and the Z score is reported as 0.75.
Turning to `CC(=O)Nc1ccnn1C[C@H]1CCOC1`, the “% Inhibition” value is recorded as -4% and the Z score was determined as 0.55.
For `CC(C)Oc1ccc(S(=O)(=O)Nc2nnc(C(F)F)[nH]2)cc1`, the “% Inhibition” value is recorded as -1% and the Z score came out at 0.24.
As for `Cc1n[nH]c2nc3c(c(O)c12)c(=O)n(C)c(=O)n3C`, the “% Inhibition” value is recorded as -39% and the Z score amounted to 4.56.
With `NC(=O)c1ccc(CNC(=O)[C@@H]2CCCc3ccccc32)cn1`, the “% Inhibition” value is 2% and the Z score was -0.28.
Consider `Cc1cn(-c2c(F)cccc2F)nc1C(=O)NCC1CCN(C)CC1`, for which the “% Inhibition” value is listed as 6% and the Z score is -0.71.
With `CC(C)n1[nH]c(=O)c2c(-c3ccccc3)c3c(nc21)[nH]c(=O)n3C`, the “% Inhibition” value was -29% and the Z score worked out at 3.44.
For the compound `CC(C)(C)C(=O)N1CCC(O)(CS(=O)(=O)Cc2ccc(Cl)cc2)CC1`, the “% Inhibition” value was found to be 36% and the Z score is -4.63.
Take `CC(C(=O)NC1CCOc2ccccc21)N1CCC(CO)C(O)C1` (configuration not stated): the “% Inhibition” value is on record as -10% and the Z score was 1.06.
As to `O=C(O)C(CNC(=O)[C@H]1C[C@H]2C=C[C@@H]1CC2)CC1CC1` (some centres not stated), the “% Inhibition” value is reported as -12% and the Z score is listed as 1.2.
In the same order, the values of `CCCS(=O)(=O)N[C@@H](C)c1cnc(N2CCCCCCC2)nc1C` are -17% and 1.51.
In the same order, the values of `CN(C)CCN(Cc1ccccc1F)S(=O)(=O)N(C)C` are -9% and 1.55.
As to `COc1cc(F)c(-c2nccn2C2CCN(Cc3cccnc3)CC2)c(F)c1`, the “% Inhibition” value is reported as -11% and the Z score came to 1.7.
In the case of `O=C(Nc1nccs1)[C@H](Oc1ccccc1Br)c1ccccc1`, the “% Inhibition” value is -18% and the Z score was 1.99.
In the same order, the values of `O=C(Cc1ccsc1)NC1CCN(c2nnc3ccc(Cl)cn23)CC1` are 30% and -3.42.
Turning to `O=C(Nc1nnc(-c2ccoc2)[nH]1)c1ccc(Cl)cc1Cl`, the “% Inhibition” value is -3% and the Z score came out at 0.4.
Turning to `CC(C)Cc1ncc(CNC(=O)N2CCC[C@H]2C(C)(C)O)s1`, the “% Inhibition” value is -1% and the Z score is recorded as 0.1.
Take `CN(C)C(=O)[C@H](CCC(N)=O)NC(=O)OCc1ccccc1`: the “% Inhibition” value is on record as -13% and the Z score was 1.76.
For the compound `COc1ccc(N2CCOCC2)cc1NC(=O)c1ccc(Cl)cc1`, the “% Inhibition” value is recorded as -8% and the Z score turned out to be 1.07.
As for `Cn1ncc2c(N(Cc3cccc(F)c3)C3CC3)ncnc21`, the “% Inhibition” value is given as 5% and the Z score is -0.74.
In the same order, the values of `CCCNC(=O)NC(=O)COc1ccc(C#N)c(F)c1` are -10% and 1.49.
Consider `CC(NC(=O)C1CC1c1ccccc1Br)c1nncn1C` (configuration not stated), for which the “% Inhibition” value was -11% and the Z score was 2.14.
Turning to `Cc1cc(F)ccc1CNC[C@H]1CN(C2CC2)CCO1`, the “% Inhibition” value was -4% and the Z score is on record as 0.46.
For `CC(C)N(CC(=O)N1CCNCC1)C(=O)c1cccc(F)c1`, the “% Inhibition” value was 0% and the Z score was -0.03.
Consider `CC(C)c1nccn1CC(=O)NC[C@H]1CCCO1`, for which the “% Inhibition” value is reported as 4% and the Z score is -0.73.
Regarding `O=C(NC[C@@H]1COc2ccccc2C1)NC1CCCC1`, the “% Inhibition” value is recorded as -12% and the Z score was 1.63.
In the same order, the values of `Cc1n[nH]c(C)c1[C@H](C)NC(=O)CCn1nnnc1C` are -4% and 0.68.
For `O=c1n(Cc2ccc3c(c2)OCO3)nc2ccc(-c3ccccc3)nn12`, the “% Inhibition” value was -4% and the Z score was determined as 0.5.
In the same order, the values of `COC(=O)NCC(=O)Nc1cc(Cl)c(C)cc1Br` are -5% and 0.99.
As to `CC[C@H](c1ccccc1)c1nc(-c2ccc3nnn(C)c3c2)no1`, the “% Inhibition” value is -7% and the Z score is given as 0.74.
On to `O=S(=O)(Cc1ccccc1)NCC1(CCO)CCCCC1`, for which the “% Inhibition” value is on record as -13% and the Z score worked out at 1.44.
With `O=C(Nc1ccccc1C(=O)NC1CC1)c1ccc2ccccc2n1`, the “% Inhibition” value is listed as -8% and the Z score turned out to be 0.68.
On to `CS(=O)(=O)NCCCc1ccc(Cl)cc1`, for which the “% Inhibition” value was found to be 9% and the Z score is -1.07.
For `O=C(NC1CCOCC1)c1ccc(Oc2ccc(C(F)(F)F)cn2)cc1`, the “% Inhibition” value is reported as 0% and the Z score was -0.03.
In the case of `CCN(C(=O)CNC(=O)c1cccc(F)c1)c1ccc2[nH]ccc2c1`, the “% Inhibition” value worked out at 1% and the Z score is -0.1.
Consider `COCCn1cnnc1[C@H](C)Nc1nc(C(C)C)nc2c1cnn2C`, for which the “% Inhibition” value is listed as -6% and the Z score turned out to be 0.54.
As to `Cc1ccccc1C(=O)NC1CCC(Oc2ncccc2C#N)CC1` (configuration not stated), the “% Inhibition” value came out at 3% and the Z score is listed as -0.59.
In the case of `CCc1ccnc(-c2noc(C3(OC)CCCCC3)n2)c1`, the “% Inhibition” value is reported as -2% and the Z score was determined as 0.28.
`Cc1cc(-c2nc([C@H]3CCO[C@@H]3C(C)(C)C)no2)ns1`: the “% Inhibition” value was found to be 19% and the Z score was -2.35.
Turning to `Cn1cc(NC(=O)NCC2CC2c2ccccc2)cn1` (configuration not stated), the “% Inhibition” value is -3% and the Z score worked out at 0.46.
Regarding `Cc1cccnc1CN(C)Cc1ccc(-c2ncc[nH]2)s1`, the “% Inhibition” value is given as -9% and the Z score was determined as 1.71.
Turning to `CN(C(=O)CC1CC2CCC1C2)C1(CO)CCOC1` (configuration not stated), the “% Inhibition” value is -12% and the Z score is listed as 2.44.
In the same order, the values of `O=C(NCc1nnc2n1CCC2)c1coc(CN2CCc3ccccc3C2)n1` are -9% and 1.17.
Regarding `O=C1COc2ccc(Cl)cc2N1Cc1nc(-c2ccc(-c3csc(C4CC4)n3)cc2)no1`, the “% Inhibition” value is listed as -3% and the Z score is 0.26.
For `CC(C)(C)c1cc(C[C@H]2CNCC[C@H]2CC(=O)N2CCC(Cc3ccccc3)CC2)no1`, the “% Inhibition” value amounted to 39% and the Z score is reported as -4.43.
In the same order, the values of `Cc1cc(S(=O)(=O)[C@H]2CS(=O)(=O)C[C@@H]2NCC2CCCO2)ccc1F` (some centres not stated) are -17% and 2.22.
As to `CC(C)[C@H]1CN(C(CO)CO)C[C@@H]1NC(=O)Cc1ccccc1`, the “% Inhibition” value is recorded as 3% and the Z score was -0.56.
In the same order, the values of `Cc1ncsc1C(=O)NCc1ccnc(-n2ccnc2C)c1` are -11% and 1.07.
Take `O=C(Cc1noc2ccccc12)Nc1nnc(-c2ccsc2)o1`: the “% Inhibition” value is recorded as -12% and the Z score is reported as 1.79.
In the same order, the values of `Cc1ccc(N2CCC[C@@]3(CCC(=O)N(Cc4cccnc4)C3)C2)nc1` are -22% and 2.04.
On to `c1cc(-c2noc(C3CCC(N4CCOCC4)CC3)n2)ccn1` (configuration not stated), for which the “% Inhibition” value is recorded as 7% and the Z score is -0.89.

What is called % Inhibition is the change of the read-out against control, counted positive when it falls.
